The campaign covered roughly 310,000 compounds. About 2,200 (0.71%) showed an effect of 50% or more. Effects have a minus sign here. Some of the results follow.
target: human ether-à-go-go-related gene (hERG) potassium channel (human, UniProt Q12809); experiment: primary screen, population patch clamp on CHO cells stably expressing hERG
Sequence (Q12809 whole entry, looked up): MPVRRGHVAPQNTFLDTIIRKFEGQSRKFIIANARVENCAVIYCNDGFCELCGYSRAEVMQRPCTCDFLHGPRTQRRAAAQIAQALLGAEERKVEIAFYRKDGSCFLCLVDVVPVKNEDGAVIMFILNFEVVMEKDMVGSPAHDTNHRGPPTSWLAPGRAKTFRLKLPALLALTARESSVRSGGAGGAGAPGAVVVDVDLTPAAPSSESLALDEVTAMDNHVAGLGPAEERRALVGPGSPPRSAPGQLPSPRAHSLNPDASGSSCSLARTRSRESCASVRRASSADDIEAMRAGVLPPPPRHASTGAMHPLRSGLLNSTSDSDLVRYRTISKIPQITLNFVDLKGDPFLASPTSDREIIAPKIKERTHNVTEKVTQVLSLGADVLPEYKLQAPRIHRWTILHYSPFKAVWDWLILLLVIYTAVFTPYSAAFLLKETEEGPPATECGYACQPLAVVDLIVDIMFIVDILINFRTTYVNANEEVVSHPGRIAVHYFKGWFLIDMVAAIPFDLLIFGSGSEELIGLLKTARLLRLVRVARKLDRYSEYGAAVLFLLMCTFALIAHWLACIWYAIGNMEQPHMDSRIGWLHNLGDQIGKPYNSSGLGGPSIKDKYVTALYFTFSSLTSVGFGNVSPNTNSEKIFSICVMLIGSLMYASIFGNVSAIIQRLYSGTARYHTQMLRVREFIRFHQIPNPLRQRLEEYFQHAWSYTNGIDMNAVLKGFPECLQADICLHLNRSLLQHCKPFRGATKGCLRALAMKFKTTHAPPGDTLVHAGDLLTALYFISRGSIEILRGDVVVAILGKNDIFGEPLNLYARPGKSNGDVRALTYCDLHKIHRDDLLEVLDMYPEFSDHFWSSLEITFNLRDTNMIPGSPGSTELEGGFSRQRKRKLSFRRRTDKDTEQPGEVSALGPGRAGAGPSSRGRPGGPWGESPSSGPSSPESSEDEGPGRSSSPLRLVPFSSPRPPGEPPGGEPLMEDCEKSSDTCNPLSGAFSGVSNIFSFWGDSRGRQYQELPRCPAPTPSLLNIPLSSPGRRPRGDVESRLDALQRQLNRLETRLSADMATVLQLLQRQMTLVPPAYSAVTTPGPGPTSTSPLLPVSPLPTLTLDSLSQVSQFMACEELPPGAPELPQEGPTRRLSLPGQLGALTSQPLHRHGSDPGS

Row | SMILES | hERG current change (%, negative = inhibition) at 1uM [%]
1 | CN(Cc1nccn1C)C(=O)c1ccc2nc(Cc3ccccc3F)oc2c1 | 9.98
2 | CC(C)CCNC(=S)NC1CCCC1 | 5.34
3 | Cc1cccc(NC(=O)CCCN2C(=O)C(c3ccccc3)Oc3cccnc32)c1C (centres unmarked) | 11.8
4 | CC(C)CNS(=O)(=O)c1ccc(C(=O)Nc2ccc3c(c2)OCO3)cc1 | -0.455
5 | COCCn1c(SCC(=O)Nc2cc(C)cc(C)c2)nnc1C(C)C | -0.478
6 | O=C1CC(c2ccccc2)CC(O)=C1C=Nc1cccc(Cl)c1 (centres unmarked) | 8.91
7 | COc1ccc(Cc2nnc(SCC(=O)NCCc3ccccc3)o2)cc1 | 7.05
8 | O=c1c2ccccc2nc(-c2ccc(Cl)cc2Cl)n1O | -19.5
9 | O=c1[nH]c2cccnc2n(CCNc2ncc(C(F)(F)F)cc2Cl)c1=O | 3.23
10 | COc1ccccc1OCCCCNC(C)(C)C | 7.5
11 | COc1ccc(/C(C)=N/NC(=O)Cc2c(C)nc(C)[nH]c2=O)cc1 | 8
12 | COc1cccc(/C=N/NC(=O)c2ccoc2C)c1 | 10.9
13 | O=C(Oc1ccc(Br)cc1C(=S)N1CCCC1)c1ccccc1Cl | 10.9
14 | Cc1ccccc1N1CCN(Cc2c[nH]c3ccccc23)CC1 | -17
15 | Cc1ccc(-c2nc3ncccc3n2O)cc1 | 13
16 | COc1ccc(-c2noc(CCC(=O)Nc3cccnc3)n2)cc1 | 21.2
17 | COC(C(=O)Nc1ccc(S(=O)(=O)Nc2ccc(C)c(C)c2)cc1)c1ccccc1 (centres unmarked) | 1.3
18 | Cc1cc(NC(=O)c2ccco2)no1 | 13.6
19 | Cc1ccc(-n2nc3ccc(NC(=O)c4ccc5c(c4)OCO5)cc3n2)cc1 | 2.21
20 | O=C(Nc1cccc(C(F)(F)F)c1)c1ccco1 | -2.11
21 | Cc1cc(C)n(-c2ncc3c(n2)N(CCO)CCOC3=O)n1 | 15.1
22 | CC(C)(C)OC(=O)N1CCNc2ccccc2C1 | 8.34

Row | SMILES | hERG current change (%, negative = inhibition) at 1uM [%]
23 | O=C(NNS(=O)(=O)c1ccccc1)c1sccc1-n1cccc1 | 7.39
24 | CCOC(=O)CC1(NC(=O)C2CCC(=O)N(CCc3ccc(OC)cc3)C2)CCCCC1 (centres unmarked) | 5.85
25 | Cc1nn(Cc2ccccc2Cl)c(C)c1C(=O)N(C)CC(=O)Nc1cccc(F)c1 | -6.18
26 | COC(=O)c1cc(C#N)c(Oc2cccc(C)c2C)nc1C | 8.72
27 | O=C(NCCCCNC(=O)C1CCCC1)C1CCCC1 | 0.747
28 | O=C(Nc1cccnc1)Nc1ccc2c(c1)OCO2 | -5.98
29 | COc1ccc(C2CC(=O)C(C=NCCN3CCN(C(C)=O)CC3)=C(O)C2)cc1 (centres unmarked) | 0.835
30 | Cc1ccccc1-c1cc(C(=O)NCc2cccs2)n(CC2CC(c3cccnc3)=NO2)n1 (centres unmarked) | -7.94
31 | Cc1cc(Nc2ccc([N+](=O)[O-])cc2)c2ccccc2n1 | 4.19
32 | Nc1nnc(C2CCCC2)s1 | 6.32
33 | CC1NC(=O)NC1CCCCCC(=O)Nc1ccc(F)c(Cl)c1 (centres unmarked) | 1.45
34 | [Cl-].c1ccc(Cn2c[n+](Cc3ccccc3)c3ccccc32)cc1 | 1.48
35 | Cc1ccc(NC(=O)c2cccc(Cl)c2)nc1 | 5.15
36 | Cc1cc(C(=O)CSc2nnnn2-c2ccc(Cl)cc2)c(C)n1CC1CCCO1 (centres unmarked) | 8.1
37 | Cc1cccc(C)c1NC(=O)COC(=O)COc1ccc2c(C)cc(=O)oc2c1 | 4.79
38 | CC1(C)CC(=O)c2cc(C(=O)NCc3ccco3)c(=O)n(-c3ccccc3)c2C1 | 7.8
39 | CCCN1C2CCCC1CC(NC(=S)NCCCOCC)C2 (centres unmarked) | 8.82
40 | Cc1occc1-c1nnc(SCC(=O)Nc2nccs2)n1Cc1ccco1 | 3.28
41 | Cc1ccc2[nH]c(=O)c(CN(Cc3cccs3)Cc3nnnn3Cc3ccccc3)cc2c1 | 3.86
42 | O=C(N/C=N/O)C1=NOC(CNc2ncc(C(F)(F)F)cc2Cl)C1 (centres unmarked) | -3.94
43 | Cc1cc(C)c2cc(C(=O)N(C)C3CCN(C)CC3)[nH]c2c1 | 14.6
44 | O=C(c1ccc(-c2nnc(Nc3ccccc3)c3ccccc23)cc1)N1C[C@H]2C[C@H](C1)c1cccc(=O)n1C2 | 8.88
